Measured values as given in a compilation of properties of binary mixtures (doi:10.1021/acs.jced.1c00924).
The densities may have been worked out from excess volumes.

Assay: xn = mol fraction of the nth substance listed
Conditions: 100 kPa, x2 = 0

CCO + CCOP(=O)([O-])OCC.CC[n+]1ccn(C)c1
Conditions	mass density [kg/m3]
293.15 K	790
298.15 K	785
303.15 K	781
308.15 K	777
313.15 K	772
323.15 K	763
328.15 K	759
333.15 K	754
338.15 K	749
